Tests used:
MLL-AF9/FLT3-ITD cells = test: Cell Titer Glo assay against MA9-FLT3-ITD cells (1536-well, 48 hr)
MA9-FLT3-ITD cells [1] = test: FLT3-ITD AML xenograft model in NRGS mice; type: in vivo
MA9-FLT3-ITD cells [2] = test: Viability and recovery of MA9-FLT3-ITD cells after treatment (AnnexinV); type: cell-based, human; conditions: 5 μM for 72 hours, then washed and replated
MA9-FLT3-ITD cells [3] = test: CellTiter-Glo luminescent viability assay, 72 hours, MA9-FLT3-ITD cells; type: cell-based, human; conditions: FIG. 7

Structure (SMILES): COc1cc2ncc(-c3cccc(NC4CCCNC4)n3)n2cc1-c1cn[nH]c1 (centres unmarked) [Compound I-29, 6-(7-methoxy-6-(1H-pyrazol-4-yl)imidazo[1,2-a]pyridin-3-yl)-N-(piperidin-3-yl)pyridin-2-amine]
- fold decrease of potency compared to compound I-20 (MLL-AF9/FLT3-ITD cells): 3 fold

Structure (SMILES): COc1cc2ncc(-c3nc(NC4CCNC4)c(F)cc3F)n2cc1-c1cn[nH]c1 (centres unmarked) [Compound I-33, 3,5-difluoro-6-(7-methoxy-6-(1H-pyrazol-4-yl)imidazo[1,2-a]pyridin-3-yl)-N-(pyrrolidin-3-yl)pyridin-2-amine]
- fold decrease of potency compared to compound I-20 (MLL-AF9/FLT3-ITD cells): 10 fold

Structure (SMILES): COc1cc2ncc(-c3cccc(NC4CCNC4)n3)n2cc1-c1cnn(C)c1 (centres unmarked) [Compound I-24, 6-(7-methoxy-6-(1-methyl-1H-pyrazol-4-yl)imidazo[1,2-a]pyridin-3-yl)-N-(pyrrolidin-3-yl)pyridin-2-amine]
- median survival (MA9-FLT3-ITD cells [1]; 30 mg/kg IP once daily, days 10-14 and 17-21, p=0.004, PBS 40 days): 49 days
- FLT3 and IRAK4 phosphorylation in sorted BM cells (MA9-FLT3-ITD cells [1]; after 2 doses, 30 mg/kg IP, immunoblot): reduction of FLT3 and IRAK phosphorylation
- recovery of cells after treatment (MA9-FLT3-ITD cells [2]): did not recover
- activity against FLT3-ITD cells (MA9-FLT3-ITD cells [3]): subnanomolar

Structure (SMILES): Clc1ccc2ncc(-c3cccc(NC4CCCNC4)n3)n2c1 (centres unmarked) [Compound I-17, 6-(6-chloroimidazo[1,2-a]pyridin-3-yl)-N-(piperidin-3-yl)pyridin-2-amine]
- activity against FLT3-ITD cells (MA9-FLT3-ITD cells [3]): subnanomolar

Structure (SMILES): Clc1ccc2ncc(-c3cccc(NC4CCNC4)n3)n2c1 (centres unmarked) [Compound I-16, 6-(6-chloroimidazo[1,2-a]pyridin-3-yl)-N-(pyrrolidin-3-yl)pyridin-2-amine]
- fold improvement of potency compared to compound I-15 (MLL-AF9/FLT3-ITD cells): ~2 fold

Structure (SMILES): COc1cc2ncc(-c3cccc(NC4CCNC4)n3)n2cc1Cl (centres unmarked) [Compound I-21, 6-(6-chloro-7-methoxyimidazo[1,2-a]pyridin-3-yl)-N-(pyrrolidin-3-yl)pyridin-2-amine]
- fold improvement of potency compared to compound I-15 (MLL-AF9/FLT3-ITD cells): ~8 fold

Structure (SMILES): c1cc(NC2CCNC2)nc(-c2cnc3cc(OCCN4CCOCC4)c(-c4cn[nH]c4)cn23)c1 (centres unmarked) [Compound I-41, 6-(7-(2-morpholinoethoxy)-6-(1H-pyrazol-4-yl)imidazo[1,2-a]pyridin-3-yl)-N-(pyrrolidin-3-yl)pyridin-2-amine]
- fold decrease of potency compared to compound I-20 (MLL-AF9/FLT3-ITD cells): ~14 fold

Structure (SMILES): COc1cc2ncc(-c3cccc(NC4CCNC4)n3)n2cc1-c1cn[nH]c1 (centres unmarked) [Compound I-20, 6-(7-methoxy-6-(1H-pyrazol-4-yl)imidazo[1,2-a]pyridin-3-yl)-N-(pyrrolidin-3-yl)pyridin-2-amine]
- day at which cells reached 50% viability after removal of compound (MA9-FLT3-ITD cells [2]): 3.4 days

— patent US11542261B2, “Substituted Imidazo[1,2-a]-pyridines as IRAK 1/4 and FLT3 inhibitors” (CHILDREN'S HOSPITAL MEDICAL CENTER, priority 2016, dated 2023)
